Reference: the supplement of paper PMC4967469
The IC50 comes from the fitted curve, where viability falls to half of the control; a limit (>, <) means that the fit lies beyond the doses tested. For AUC the same curve is integrated over the 256-fold range of doses and scaled to a fraction: 1 means no effect, lower means more sensitive. For part of these data: Where the top dose is marked as inferred, it is not printed in the source and was worked back from the curve model. For part of these data: Where an entry number is given, a second screen of the drug exists; the two often differ.

Columns and labels:
Assay in all cases: Viability of human cancer cell lines after 72 h of drug (GDSC screen)
LFM-A13 = compound: C/C(O)=C(\C#N)C(=O)Nc1cc(Br)ccc1Br [LFM-A13]; settings: top dose 16 µM; top dose inferred
Procedure: (§1)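 Human cancer cell lines in 384-well plates, medium with 10% serum, drug for 72 h over a 256-fold dose range (nine 2-fold or five 4-fold steps up to the top dose). Adherent lines were fixed and stained with the nucleic acid dye Syto60, suspension lines read with resazurin; signal relative to control wells, capped at 0 and 100%. One two-parameter sigmoid per drug and line, fitted in a mixed model over all curves with the slope shared within a line.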

TW-37 = compound: CC(C)c1ccccc1Cc1cc(C(=O)Nc2ccc(S(=O)(=O)c3ccccc3C(C)(C)C)cc2)c(O)c(O)c1O [TW-37]; settings: top dose 5 µM
Procedure: as §1

Bicalutamide = compound: CC(O)(CS(=O)(=O)c1ccc(F)cc1)C(=O)Nc1ccc(C#N)c(C(F)(F)F)c1 [Bicalutamide]; settings: top dose inferred
Procedure: as §1

AUY922 = compound: CCNC(=O)c1noc(-c2cc(C(C)C)c(O)cc2O)c1-c1ccc(CN2CCOCC2)cc1 [AUY922]; settings: top dose 0.256 µM; top dose inferred
Procedure: as §1

KIN001-270 = compound: Cc1ccc(Nc2cc(-c3cccc(N4C(=O)c5ccccc5C4=O)c3)ncn2)cc1NS(C)(=O)=O [KIN001-270]; settings: top dose 20 µM; top dose inferred
Procedure: as §1

GNF-2 = compound: NC(=O)c1cccc(-c2cc(Nc3ccc(OC(F)(F)F)cc3)ncn2)c1 [GNF-2]; settings: top dose 1.28 µM; top dose inferred
Procedure: as §1

Gemcitabine = compound: Nc1ccn([C@@H]2O[C@H](CO)[C@@H](O)C2(F)F)c(=O)n1 [Gemcitabine]; settings: top dose 1.024 µM
Procedure: as §1

T0901317 = compound: O=S(=O)(c1ccccc1)N(CC(F)(F)F)c1ccc(C(O)(C(F)(F)F)C(F)(F)F)cc1 [T0901317]; settings: top dose 10.24 µM; top dose inferred
Procedure: as §1

MP470 = compound: S=C(NCc1ccc2c(c1)OCO2)N1CCN(c2ncnc3c2oc2ccccc23)CC1 [MP470]; settings: top dose 20 µM; top dose inferred
Procedure: as §1

[1] = top dose 1.024 µM, screen: GDSC drug entry 150
[2] = top dose 10 µM, screen: GDSC drug entry 1502

Cell Line | AUC (LFM-A13) | IC50 (LFM-A13) | AUC (TW-37) | IC50 (TW-37) | AUC (Bicalutamide; [1]) | IC50 (Bicalutamide; [1]) | AUC (Bicalutamide; [2]) | IC50 (Bicalutamide; [2]) | AUC (AUY922) | IC50 (AUY922) | AUC (KIN001-270) | IC50 (KIN001-270) | AUC (GNF-2) | IC50 (GNF-2) | AUC (Gemcitabine) | IC50 (Gemcitabine) | AUC (T0901317) | IC50 (T0901317) | AUC (MP470) | IC50 (MP470)
LOXIMVI (melanoma, semi-adherent) | 0.98 | > 16000 nM | 0.51 | 332 nM | 0.989 | > 1020 nM | 0.977 | > 10000 nM | 0.561 | 23 nM | 0.986 | > 20000 nM | 0.985 | > 1280 nM | 0.236 | 12.3 nM | 0.983 | > 10200 nM | 0.96 | > 20000 nM
HT-144 (melanoma, adherent) | 0.975 | > 16000 nM | 0.43 | 196 nM | 0.982 | > 1020 nM | 0.965 | > 10000 nM | 0.275 | 3.39 nM | 0.968 | > 20000 nM | 0.943 | > 1280 nM | 0.175 | 5.74 nM | 0.981 | > 10200 nM | 0.905 | > 20000 nM
NCI-H1355 (lung adenocarcinoma, adherent) | 0.893 | > 16000 nM | 0.66 | 1060 nM | 0.978 | > 1020 nM | 0.954 | > 10000 nM | 0.531 | 20.1 nM | 0.974 | > 20000 nM | 0.924 | > 1280 nM | 0.134 | < 4 nM | 0.975 | > 10200 nM | 0.906 | > 20000 nM
TC-71 (Ewing sarcoma, adherent) | 0.989 | > 16000 nM | 0.47 | 262 nM | 0.992 | > 1020 nM | 0.971 | > 10000 nM | 0.869 | 172 nM | 0.874 | 14000 nM | 0.992 | > 1280 nM | 0.407 | 37.3 nM | 0.943 | > 10200 nM | 0.792 | 7400 nM
COLO-800 (melanoma, adherent) | 0.891 | > 16000 nM | 0.495 | 302 nM | 0.987 | > 1020 nM | 0.979 | > 10000 nM | 0.633 | 36.8 nM | 0.983 | > 20000 nM | 0.978 | > 1280 nM | 0.37 | 28.3 nM | 0.963 | > 10200 nM | 0.743 | 6040 nM
SW872 (soft tissue, adherent) | 0.966 | > 16000 nM | 0.349 | 125 nM | 0.986 | > 1020 nM | 0.981 | > 10000 nM | 0.57 | 24.3 nM | 0.976 | > 20000 nM | 0.967 | > 1280 nM | 0.102 | < 4 nM | 0.978 | > 10200 nM | 0.921 | > 20000 nM
HCC-33 (small cell lung carcinoma, adherent) | 0.983 | > 16000 nM |  |  | 0.987 | > 1020 nM |  |  | 0.864 | 229 nM | 0.977 | > 20000 nM | 0.985 | > 1280 nM | 0.845 | 751 nM | 0.985 | > 10200 nM | 0.93 | > 20000 nM
Hs-445 (Hodgkin lymphoma, suspension) | 0.988 | > 16000 nM |  |  | 0.988 | > 1020 nM | 0.988 | > 10000 nM | 0.497 | 15.7 nM | 0.966 | > 20000 nM | 0.989 | > 1280 nM | 0.041 | < 4 nM | 0.988 | > 10200 nM | 0.879 | 17800 nM
HCC1599 (breast, suspension) | 0.98 | > 16000 nM |  |  | 0.977 | > 1020 nM |  |  | 0.695 | 61.7 nM | 0.968 | > 20000 nM | 0.981 | > 1280 nM | 0.449 | 45.4 nM | 0.951 | > 10200 nM | 0.905 | > 20000 nM
SU-DHL-1 (anaplastic large cell lymphoma, suspension) | 0.997 | > 16000 nM |  |  | 0.996 | > 1020 nM |  |  | 0.764 | 70 nM | 0.997 | > 20000 nM | 0.997 | > 1280 nM | 0.269 | 17.6 nM | 0.988 | > 10200 nM | 0.976 | > 20000 nM
NCI-H2196 (small cell lung carcinoma, adherent) | 0.98 | > 16000 nM |  |  | 0.987 | > 1020 nM |  |  | 0.679 | 52.1 nM | 0.953 | > 20000 nM | 0.981 | > 1280 nM | 0.819 | 624 nM | 0.987 | > 10200 nM | 0.631 | 2940 nM
SIG-M5 (acute myeloid leukaemia, suspension) | 0.959 | > 16000 nM |  |  | 0.994 | > 1020 nM |  |  | 0.318 | 5.74 nM | 0.9 | 14200 nM | 0.994 | > 1280 nM | 0.01 | < 4 nM | 0.831 | 4390 nM | 0.901 | 14400 nM
TALL-1 (T-cell lymphoblastic leukaemia, suspension) | 0.99 | > 16000 nM |  |  | 0.99 | > 1020 nM |  |  | 0.859 | 197 nM | 0.985 | > 20000 nM | 0.99 | > 1280 nM | 0.953 | > 1020 nM | 0.974 | > 10200 nM | 0.806 | 9620 nM
